Values marked as one replicate rest on one cluster of the flow cell; about a third of the high ones do not repeat.
Test system: ATP
Test: switch fluorescence ratio, 500 uM ATP over buffer (Cy3 cluster intensity, sum of 5 cycles each) (fold (ratio)); higher = stronger signal-on switching upon ATP binding; sequences stand for … in TCGTCGGCAGCGTCAGATGTGTATAAGAGACAGTTTTTTTTTTTTTTTTTTTTTTTTT…TC
Conditions: aptamer strand: ATP DNA aptamer (quencher-CACCTGGGGGAGTATTGCGGAGGAAGG + anchor), 100 nM annealed; ATP concentration: 500 uM; one replicate
How it was run: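 Values give the fluorescence ratio for each switch-domain sequence, averaged from per-cluster ratios of summed target-cycle to summed buffer-cycle Cy3 intensity. The Cy3-labelled switching-strand clusters sat on a modified Illumina MiSeq flow-cell, were annealed to 100 nM quencher-labelled ATP aptamer, and were imaged in selection buffer, then after 15 min with 500 uM ATP at 22 °C. Five cycles ran with NaOH stripping and re-annealing between them, and clusters outside 100-1000 RFU were excluded.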
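Further: ATP exposure 15 min at 22 °C before imaging.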

TCTGGACACT
switch fluorescence ratio: 1

AATTAGTGAA
switch fluorescence ratio: 0.988

AAACCCGC
switch fluorescence ratio: 1.04

GCAGTCATAT
switch fluorescence ratio: 1.01

GATGCTTGCC
switch fluorescence ratio: 0.998

GGAGGCACGT
switch fluorescence ratio: 0.996

CCGCTCATTT
switch fluorescence ratio: 1.27

ACACCTACGG
switch fluorescence ratio: 1.25

AAAACTGTAT
switch fluorescence ratio: 1.07

AAGAAACTAT
switch fluorescence ratio: 0.979

ATTGACAACG
switch fluorescence ratio: 0.904

GTTGTGGT
switch fluorescence ratio: 0.955

GTGATTTCAC
switch fluorescence ratio: 1.04

GGACCCAGTG
switch fluorescence ratio: 1.21

ACCCTTACCC
switch fluorescence ratio: 1.43

ATCCTTTATC
switch fluorescence ratio: 1.03

AATTATTGTG
switch fluorescence ratio: 0.964

TGGAACCTTT
switch fluorescence ratio: 2.54

TCCGGTGTAA
switch fluorescence ratio: 1.75

TGGTTTGGAC
switch fluorescence ratio: 1.01

GGTGGGGTTC
switch fluorescence ratio: 0.972

AGATAGTTAA
switch fluorescence ratio: 1.05

TGACACACGT
switch fluorescence ratio: 1.32

GCCAGAGCCA
switch fluorescence ratio: 1.01

TGTTCAAAAT
switch fluorescence ratio: 1.01

AATACATCTC
switch fluorescence ratio: 1.03

CACATCGACA
switch fluorescence ratio: 1.09

GCTGTCCTTT
switch fluorescence ratio: 0.948

GAAAGAAATT
switch fluorescence ratio: 0.992

TAAATCCGGC
switch fluorescence ratio: 0.968

TGCCACATTT
switch fluorescence ratio: 1.58

GATCGCCGTC
switch fluorescence ratio: 0.989

TTAAACAAGT
switch fluorescence ratio: 0.956

CGTATACGCT
switch fluorescence ratio: 0.955

GTAATCCCTC
switch fluorescence ratio: 1.01

GCCATTACTC
switch fluorescence ratio: 2.07

TAGCGACATC
switch fluorescence ratio: 0.974

TTATTTCGGT
switch fluorescence ratio: 1.01

GAGCACTATG
switch fluorescence ratio: 1.06

CATTGGAAGT
switch fluorescence ratio: 0.979

GTGCCGCATA
switch fluorescence ratio: 2.25

CAGGAGTCTG
switch fluorescence ratio: 1

CGAAGTCAGT
switch fluorescence ratio: 1.09

GATGGTCGGG
switch fluorescence ratio: 0.955

GGTCCCATGG
switch fluorescence ratio: 1.04

TGAGTTGATG
switch fluorescence ratio: 0.99

GTCCCAATTT
switch fluorescence ratio: 1.06

TGTGGATTGT
switch fluorescence ratio: 1.02

GCTGTCGGTC
switch fluorescence ratio: 0.975

ATGCACTAGG
switch fluorescence ratio: 1.09

CGGAACGTAA
switch fluorescence ratio: 1.2

GGGCAAGCAA
switch fluorescence ratio: 1.29

AGGTGACTAG
switch fluorescence ratio: 0.96

TGTCTATCGA
switch fluorescence ratio: 1

AGGAAACGAC
switch fluorescence ratio: 1.08

TGGTACACAG
switch fluorescence ratio: 0.971

GACGAATCTT
switch fluorescence ratio: 0.975

GAGTGTGGCA
switch fluorescence ratio: 1.03

GGGAGCATTC
switch fluorescence ratio: 1.34

TAGAGCAT
switch fluorescence ratio: 1.05

CGATTCGTG
switch fluorescence ratio: 0.951

CCTAGGAGGC
switch fluorescence ratio: 1.06

ATTTGGTCTT
switch fluorescence ratio: 1

GGCTCCAAGC
switch fluorescence ratio: 0.988

GCATCAAACC
switch fluorescence ratio: 1

TATTTTCCGG
switch fluorescence ratio: 0.961

GAAAGCAACT
switch fluorescence ratio: 1.7

TTAGGTGCTA
switch fluorescence ratio: 1.73

TTGTAACTGG
switch fluorescence ratio: 1.03

GCTGGTAGGC
switch fluorescence ratio: 1.01

TATAGTGATA
switch fluorescence ratio: 1

CAATGGCGTC
switch fluorescence ratio: 1.01

ATCAACGATG
switch fluorescence ratio: 1.01

GCAAGAGCCG
switch fluorescence ratio: 0.937

AGTAATCCGG
switch fluorescence ratio: 1.01

ACGGATCGGA
switch fluorescence ratio: 0.995

CGGGTTGG
switch fluorescence ratio: 0.964

TAAGGCTTCC
switch fluorescence ratio: 1.6

GGTTATTATT
switch fluorescence ratio: 0.962

CTAGAGTGAC
switch fluorescence ratio: 1.01

CACATACTGT
switch fluorescence ratio: 1.41

TGTCCGCGGA
switch fluorescence ratio: 2.17

TTACTCTGG
switch fluorescence ratio: 1.17

AGGATTGGCG
switch fluorescence ratio: 1.03

ACTCGTTATT
switch fluorescence ratio: 0.965

TTTTTTAAC
switch fluorescence ratio: 1.06

CAATCGTTAT
switch fluorescence ratio: 0.947

CGTACAGGTC
switch fluorescence ratio: 0.994

TAGCAGATTT
switch fluorescence ratio: 0.962

ATCTCGTCC
switch fluorescence ratio: 1

GGGAACTTTT
switch fluorescence ratio: 0.956

ATAGAGTCCG
switch fluorescence ratio: 1.07

GTGCTTGGCT
switch fluorescence ratio: 1.06

TGTGTTATGC
switch fluorescence ratio: 1.02

TTCCGGCCTC
switch fluorescence ratio: 1.79

GGGCCGCCTT
switch fluorescence ratio: 1.04

GAGTCTGACC
switch fluorescence ratio: 0.987

CATCCTGGGT
switch fluorescence ratio: 1.06

TTCAGTGTAA
switch fluorescence ratio: 1

CTAGTAGAT
switch fluorescence ratio: 1.05

CGCTAGATAT
switch fluorescence ratio: 1.05

AGTTCTTAGC
switch fluorescence ratio: 1.02

TAACCA
switch fluorescence ratio: 1.04

AGTTAAGGGG
switch fluorescence ratio: 0.968

TGGCGTAGGC
switch fluorescence ratio: 0.994

TACGGTGGCC
switch fluorescence ratio: 0.991

TTACCACACT
switch fluorescence ratio: 1.03

TCAGGATCCC
switch fluorescence ratio: 0.99

TAGAATTTAT
switch fluorescence ratio: 0.962

AAGTTATTG
switch fluorescence ratio: 0.987

CACATGCTTT
switch fluorescence ratio: 0.985

TCGACGGGG
switch fluorescence ratio: 1.07

CATACAGTCG
switch fluorescence ratio: 1.05

TGGATGTTGC
switch fluorescence ratio: 1.02

ATCTTCCTTG
switch fluorescence ratio: 1.27

CGATGGTACA
switch fluorescence ratio: 1.02

TTGATGACGA
switch fluorescence ratio: 0.97

ACGACAGACT
switch fluorescence ratio: 1.26

TTTGTTCTTG
switch fluorescence ratio: 0.958

CCGTTAGGGT
switch fluorescence ratio: 1.02

ATGCTTTGGT
switch fluorescence ratio: 1.02

CGAAGGCTTT
switch fluorescence ratio: 1.05

CAGCTGAGGA
switch fluorescence ratio: 0.978

TGTCTAGGGG
switch fluorescence ratio: 0.99

GGACATAACC
switch fluorescence ratio: 1.07

CCTAATGGGG
switch fluorescence ratio: 1.05

ATCACGCCCA
switch fluorescence ratio: 1.18

TCTAGCGGAT
switch fluorescence ratio: 0.956

TTCTCAACGC
switch fluorescence ratio: 1.09

TATATAGCGG
switch fluorescence ratio: 1.03

GGCCTAATGC
switch fluorescence ratio: 1

GCGAGTGGAT
switch fluorescence ratio: 1.06

TGGCTTTCTC
switch fluorescence ratio: 1.11

AAAGTGGTAC
switch fluorescence ratio: 1.03

AGTATCTTTG
switch fluorescence ratio: 0.982

TAGGTCATAG
switch fluorescence ratio: 1.01

ACCGTAGCTC
switch fluorescence ratio: 2.9

TTCGCCAGCA
switch fluorescence ratio: 1.11

GTGAATCTA
switch fluorescence ratio: 0.988

AGCACCACGG
switch fluorescence ratio: 1.05

GGTTCTGGGG
switch fluorescence ratio: 0.981

TAAAGAGATA
switch fluorescence ratio: 0.994

AGCTGTTAAC
switch fluorescence ratio: 1.05

TCCGACAGC
switch fluorescence ratio: 1.66

CTATACTCTT
switch fluorescence ratio: 1.05

AAACATTTAG
switch fluorescence ratio: 0.993

GGTTCTGCTA
switch fluorescence ratio: 0.95

AGTCCATGCT
switch fluorescence ratio: 1.04

ACCACAGTGT
switch fluorescence ratio: 1.4

GGGTCAGCAC
switch fluorescence ratio: 0.985

CGAATTCGTC
switch fluorescence ratio: 0.977

GTTTGATGCT
switch fluorescence ratio: 0.954

AAATTTA
switch fluorescence ratio: 0.971

GGATGTGCTT
switch fluorescence ratio: 0.969

CCGATGGAGC
switch fluorescence ratio: 1.7

TACGGCAGGC
switch fluorescence ratio: 1.15

GCACGTGCTG
switch fluorescence ratio: 0.988

GTTAGTCGTT
switch fluorescence ratio: 1.01

ACCAGAACTT
switch fluorescence ratio: 1.01

CCATGATTGA
switch fluorescence ratio: 0.954

TTAAGTTAAA
switch fluorescence ratio: 1.07

TCCCACTTAG
switch fluorescence ratio: 1

GGGAGAGCTT
switch fluorescence ratio: 1.01

TGCTTTAGAG
switch fluorescence ratio: 0.994

ACGCGCGTTG
switch fluorescence ratio: 1.05

TGCATAAGGT
switch fluorescence ratio: 0.981

CCGTGCGCTA
switch fluorescence ratio: 4.64

CTAATCCA
switch fluorescence ratio: 1

TCGTGTTAAT
switch fluorescence ratio: 0.985

TAACACTA
switch fluorescence ratio: 1.06

GGGAAGTAT
switch fluorescence ratio: 0.997

GGTGGCGGAG
switch fluorescence ratio: 0.994

TGCTCGATC
switch fluorescence ratio: 1.14

ATCGACCAGT
switch fluorescence ratio: 1

TTACAGAGAC
switch fluorescence ratio: 1.06

AGTAGTTTG
switch fluorescence ratio: 1

AATCAACGAG
switch fluorescence ratio: 1.01

GGCGCTATGT
switch fluorescence ratio: 1.01

TATGACCGCA
switch fluorescence ratio: 1.21

GCGCTGAACG
switch fluorescence ratio: 1.04

AAAATGAGCA
switch fluorescence ratio: 1.05

GATTTGCTCG
switch fluorescence ratio: 0.99

TCCGGCATTT
switch fluorescence ratio: 1.14

AGAAGTACTT
switch fluorescence ratio: 1.01

CGTACTCCAG
switch fluorescence ratio: 0.965

GACATACCGG
switch fluorescence ratio: 1.18

CGGCAGATGT
switch fluorescence ratio: 0.997

TGTTAGAAA
switch fluorescence ratio: 0.96

AAAAAGTTTA
switch fluorescence ratio: 1

GTGTGGCGTA
switch fluorescence ratio: 1

CCGGGAGAGT
switch fluorescence ratio: 1.09

TTTAGAGTGG
switch fluorescence ratio: 0.995

ACGGCTAAC
switch fluorescence ratio: 1.15

CGGGTTTCTT
switch fluorescence ratio: 0.99

CTTTAGAACT
switch fluorescence ratio: 0.957

AAGATCGGCT
switch fluorescence ratio: 1.03

TTGGACGGAC
switch fluorescence ratio: 1.13

GGGTCTACAT
switch fluorescence ratio: 1.02

CATACTGGTC
switch fluorescence ratio: 0.949

CAGAACCGTG
switch fluorescence ratio: 0.996

ACATAAAG
switch fluorescence ratio: 0.982

From the supplement of paper PMC10126150
